For 110 compounds, z-score results are on record in PubChem BioAssay AID488969 (Vanderbilt High Throughput Screening Facility, 2010).

Whole data set: some 110,000 compounds, median “z-score” near -0.1, cut for the highest 2% near 2. The list shows a part of the results. Activity calls are given as the source filed them.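 Rule for the calls: active = z-score in the third read window above 3 or below -3; inactive = the rest.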

The target in this experiment is Metabotropic glutamate receptor 8 (Rattus norvegicus) (UniProt P70579). Briefly: mGluR8 Gi/Go-coupled signaling modulation – cell-based, rat, thallium flux, HTS, primary screen (AID 488969). Conditions: HEK293 rat mGluR8, GIRK (G protein-gated inwardly rectifying potassium channel) thallium flux, FluoZin2; at 10 µM; stronger effect = higher value; submaximal glutamate (EC20) added with thallium.
Chain of UniProt P70579 (P70579 whole entry, looked up): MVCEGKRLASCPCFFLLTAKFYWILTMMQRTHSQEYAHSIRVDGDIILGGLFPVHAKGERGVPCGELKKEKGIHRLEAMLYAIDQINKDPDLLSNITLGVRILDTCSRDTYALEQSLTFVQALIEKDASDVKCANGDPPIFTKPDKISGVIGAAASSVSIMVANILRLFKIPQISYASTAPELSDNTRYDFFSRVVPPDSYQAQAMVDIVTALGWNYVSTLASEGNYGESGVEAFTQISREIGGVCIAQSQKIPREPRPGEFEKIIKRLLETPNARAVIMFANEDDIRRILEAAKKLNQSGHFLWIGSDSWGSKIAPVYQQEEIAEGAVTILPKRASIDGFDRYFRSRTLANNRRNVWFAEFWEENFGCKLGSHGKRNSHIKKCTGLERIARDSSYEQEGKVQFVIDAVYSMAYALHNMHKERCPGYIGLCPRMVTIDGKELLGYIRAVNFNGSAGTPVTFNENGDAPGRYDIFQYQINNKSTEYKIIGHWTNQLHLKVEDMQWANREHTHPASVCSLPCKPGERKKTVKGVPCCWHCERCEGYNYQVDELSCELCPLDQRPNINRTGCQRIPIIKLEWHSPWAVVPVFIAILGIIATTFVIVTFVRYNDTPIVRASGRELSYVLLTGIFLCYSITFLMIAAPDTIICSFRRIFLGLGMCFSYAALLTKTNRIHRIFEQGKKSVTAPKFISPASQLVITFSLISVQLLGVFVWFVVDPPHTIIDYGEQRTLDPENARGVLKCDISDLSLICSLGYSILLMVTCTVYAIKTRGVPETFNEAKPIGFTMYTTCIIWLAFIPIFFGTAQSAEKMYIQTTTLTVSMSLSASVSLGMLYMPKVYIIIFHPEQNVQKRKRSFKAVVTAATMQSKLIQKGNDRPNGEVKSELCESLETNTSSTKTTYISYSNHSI
For the compound `Cc1cc(C=O)c(C)n1-c1ccc(N2CCCCC2)c([N+](=O)[O-])c1`, the z-score was -0.468.
Next, `C/C(=N\N1CCN(c2ccc(Cl)cc2)CC1)c1cccs1`: -0.204; `CCOC(=O)Cc1nnc(NC(=O)CSc2ccc(C)cc2)s1`: -0.277.
To `CN(C)c1nc(-c2ccccn2)nnc1-c1ccccc1` belongs 0.482; to `O=C(NC12CC3CC(CC(C3)C1)C2)N1CCCC(CO)C1` (stereo not given), -0.045.
Next, `COC(=O)C1=C(C)NC(C)=C(C(=O)OC)C1/C=C/c1ccccc1`: -0.188.
For `O=C(Cn1cc([N+](=O)[O-])cn1)N1CCc2ccccc21`, the z-score was 0.0712.
In turn, `CC(C)C(c1nnnn1C1CCCCC1)N1CCc2ccccc2C1` (stereo not given) registered a z-score of -0.536.
Next, `CN1CCN(CC(=O)NC2CCCCC2)CC1`: -0.239; `N#CC1=C(C=Nc2ccccc2O)CCC1`: -0.0637.
Turning to `COc1ccc(OCc2nnc(SCC(=O)N3c4ccccc4Sc4ccc(Cl)cc43)o2)cc1`, the z-score is -0.0274.
Compound `CC1Cc2nc(SCC(=O)N3CCN(c4ccccc4)CC3)n(CCc3ccccc3)c(=O)c2S1` (stereo not given) registered a z-score of -1.13.
Next, `CCc1ccc(-c2cc(C(F)(F)F)n3nc(C(=O)Nc4c(C)nn(Cc5ccc(F)cc5)c4C)cc3n2)s1`: -0.262; `CCOC(=O)c1c(C)n(C)c2ccc(OCC(O)Cn3nc(C)cc3C)cc12` (stereo not given): -0.498.
Next, `Cc1onc(-c2ccccc2)c1-c1nc2ccccc2c(=O)o1`: active: -3.37; `COc1ccc(-c2nnc(SCC(=O)Nc3ccc(Cl)cc3)n2C)cc1`: -0.405; `CCc1ccc2c(c1)[C@]1(C(=O)N2)[C@@H]2C(=O)N(Cc3ccccc3)C(=O)[C@@H]2[C@@H]2CCCN21`: 0.369.
Next, `Cc1ccc(C(C(=O)NC2CCCC2)N2CCc3ccccc32)cc1` (stereo not given): 1.23; `Cc1cccc(-c2nnc3n2N=C(c2ccccc2Br)CS3)c1`: -1.31.
`O=C(O)C1CCC(=O)N1Cc1ccc(F)cc1` (stereo not given): the z-score is -0.162.
With `COc1ccc(Oc2nccc(-c3ccc(F)cc3)c2C#N)cc1`, the z-score was 0.0229.
To `COc1ccc(-c2noc(CN(C)S(=O)(=O)c3ccccc3)n2)cc1OC` belongs 0.388; to `CCOc1ccc(NC(=O)c2ccc3nccnc3c2)cc1`, -0.221; to `O=S(=O)(Nc1nc2c(s1)CCCC2)c1ccc(Br)cc1`, 0.621.
For the compound `COc1ccc(OC)c(S(=O)(=O)NCCO)c1`, the z-score is -0.171.
Take `Cc1coc2c(C)c3oc(=O)c4c(c3cc12)CCC4`: the z-score was -0.0995.
To `O=c1c2ccccc2nc(SCc2ccc([N+](=O)[O-])cc2)n1-c1ccc(Cl)cc1` belongs 0.0194; to `CCC(Sc1nc2cc3c(cc2c(=O)n1Cc1ccco1)OCO3)C(=O)Nc1cccc(OC)c1` (stereo not given), 0.651; to `CNC(=O)c1ccccc1F`, -0.304.
Next, `CCc1nccn1S(=O)(=O)c1ccc2ccc(C)cc2c1`: -0.0756; `C=CCSc1nc2ccccc2[nH]1`: -0.22.
To `CCOc1ccc(/C=N/Nc2nc(N3CCCC3)nc(N3CCCC3)n2)cc1OC` belongs -0.93; to `COc1ccc(OC)c(NC(=O)Cn2cc(C(=O)c3ccco3)c3ccccc32)c1`, -0.348.
In turn, `CCOC(=O)c1c(-c2cccc(C)c2)csc1NC(=O)C1CC=CCC1C(=O)O` (stereo not given) had a z-score of -0.428.
Compound `Cc1sc(NC(=S)NC(=O)c2ccc(C(C)(C)C)cc2)c(C#N)c1C` displayed a z-score of -0.261.
Compound `Cc1ccc(SC(=O)COc2ccc(C)c(C)c2)cc1` returned a z-score of -0.0165.
To `CC(=O)Nc1ccc(OCC(O)Cn2c3ccccc3c3ccccc32)cc1` (stereo not given) belongs 0.114; to `CN1C(=O)c2cccc(N(C)C)c2C1=O`, -0.183; to `Cc1ccc(SC(C)C(=O)Nc2cccc(N(C)S(C)(=O)=O)c2)cc1` (stereo not given), -0.229.
To `Cc1ccc(CCNC(=O)C2CCN(C(=O)N(C)C)CC2)cc1` belongs -0.692; to `COc1cc(/C=N/NC(=O)c2cncc(Br)c2)ccc1OC(=O)c1ccc2c(c1)OCO2`, -0.781; to `Cc1cccc(C(=O)NN(C)c2nc(-c3ccccc3)nnc2C(F)(F)F)c1`, 0.215.
Compound `C=CCn1c(COc2ccccc2)nnc1SC(C)C(=O)N/N=C/c1cc(Cl)ccc1O` (stereo not given) had a z-score of -0.297.
To `N/C(COc1ccc(Cl)cc1)=N\NS(=O)(=O)c1ccccc1` belongs -0.154; to `Cc1c(C#N)c2ccccc2n1CC(=O)NC(C)c1ccccc1` (stereo not given), -0.0353; to `Cc1c(-c2ccc(F)cc2)nc(N)c(C#N)c1-c1cccs1`, -0.00884.
As to `Cc1ccc(Oc2ccccc2/C=C/C(=O)O)cc1`, the z-score is 0.23.
Next, `O=C(COc1ccc(=O)n(-c2ccccc2)n1)Nc1ccccc1`: -0.349; `Cn1ncc([N+](=O)[O-])c1C(=O)Nc1ccc2c(c1)OCCO2`: -0.139.
Turning to `COC(=O)c1sc(NC(=O)C(C)c2ccccc2)nc1C` (stereo not given), the z-score was -0.32.
To `CCOc1ccccc1C1CC(c2ccccc2)Nc2nc(N)nn21` (stereo not given) belongs 0.236; to `CN1CCN(NC(=O)CN2C(=O)/C(=C/c3ccccc3Cl)SC2=S)CC1`, -0.672.
Next, `CCCc1nn2c(=O)c(C(c3cccc(Cl)c3)c3c(O)nc4sc(CCC)nn4c3=O)c(O)nc2s1`: -0.214; `CCOc1ccc(S(=O)(=O)Oc2ccc3ccccc3c2)cc1`: -0.0642.
Turning to `O=C(NCC(=O)N(CC1CCCO1)C1(C(=O)NC2CCCC2)CCCCC1)c1ccccc1` (stereo not given), the z-score is -0.361.
Compound `O=C(O)CCCC(=O)NCCc1ccncc1` displayed a z-score of 0.0989.
To `N=c1nc(N)nc2n1NC(c1ccc(F)cc1)=CS2` belongs -0.504; to `COCCCN1C(=O)c2ccc(C(=O)Nc3ccc(OC)cc3)cc2C1=O`, 0.0601; to `CN(Cc1cccs1)S(=O)(=O)c1cccs1`, -0.191.
To `O=C(/C=C/c1ccc(Br)cc1)NC1CCCCCC1` belongs 0.112; to `Cc1cc(C)c2nc(N3CCN(C)CC3)c(C#N)cc2c1`, -0.416; to `Cc1cc(NC(=O)c2cnn3c(C(F)(F)F)cc(-c4ccccc4)nc23)no1`, -0.46.
With `Cn1c(Cc2ccccc2)nnc1SCC(=O)c1cccs1`, the z-score was determined as 0.0263.
`O=c1[nH]c(CN2CCc3ccccc3C2)nc2ccccc12` yielded a z-score of 0.446.
Next, `Cc1cc(N(C)NC(=S)Nc2ccccc2)nc(C)n1`: 0.069; `CC1(C)CC(NC(=O)c2cccc3ccccc23)CC(C)(C)N1`: -0.109.
Next, `CCOC(=O)CCCCC(=O)c1[nH]c(=O)[nH]c1CSc1nc(C)cc(C)n1`: -0.307; `CCC(c1n[nH]c(=S)n1-c1ccccc1)N(C)C` (stereo not given): -0.992.
In turn, `COc1ccc(OCC#CCNC(C)(C)C)cc1` gave a z-score of 0.0183.
To `Cc1cc(=O)[nH]c(SCc2csc(-c3ccccc3)n2)n1` belongs -0.553; to `C=CCNC(=O)c1ccc(Cl)cc1Cl`, 0.206; to `O=C1CSC2(C(=O)N3CCCc4cccc2c43)N1c1cccc(C(F)(F)F)c1` (stereo not given), -0.28.
To `O=C(CS(=O)(=O)Cc1ccccc1)Nc1ccc(S(=O)(=O)N2CCOCC2)cc1` belongs -0.109; to `NNC(=O)CNC(=O)c1ccc(F)cc1`, -0.271.
In the case of `COc1cccc(C(=O)NC(=S)Nc2ccc(Cl)c(C(=O)O)c2)c1`, the z-score worked out at 0.493.
To `CCN(C(=O)COC(=O)c1cc2ccccc2cc1O)C1CCS(=O)(=O)C1` (stereo not given) belongs -0.0757.
Regarding `CNC(=O)N1CCN(C(=O)NC)CC1`, the z-score is -0.168.
To `Cc1ccc2cc(CN(C)C(=O)C3CCCO3)c(=O)[nH]c2c1` (stereo not given) belongs 0.14; to `O=C(Cc1ccccc1)N1CCCC(c2nc(-c3ccc(S(=O)(=O)N4CCCC4)cc3)no2)C1` (stereo not given), -0.104.
Next, `COc1ccc(C(=O)COC(=O)c2ccc(NC(=O)c3ccccc3)cc2)cc1`: 0.00806; `O=[N+]([O-])c1cccc(-c2nnn(C34CC5CC(CC(C5)C3)C4)n2)c1`: -0.00482.
Next, `CCc1cccc2cc3c(N)c(C(=O)Nc4ccc(S(=O)(=O)N5CCCC5)cc4)sc3nc12`: -0.235; `C=C(Cl)COc1cc(C)cc2oc(=O)cc(CC)c12`: -0.344; `Cc1ccsc1C(=O)OCC(=O)NCCC1=CCCCC1`: -0.248.
Take `CCOc1cc(CNn2cnnc2)cc(Br)c1OCC(=O)NC1CCCCC1`: the z-score was -0.179.
To `Cc1ccc(S(=O)(=O)N2CCOCC2)c(C)c1-n1cnnn1` belongs 0.0967; to `CCN(CC)S(=O)(=O)c1ccc(F)c(C(=O)NCCC(C)C)c1`, 0.869; to `CCn1c(C(C)NC(=O)c2cccc(C)c2)nc2ccccc21` (stereo not given), -0.392.
Regarding `COc1ccc(C(=O)Nc2cccc(/C(C)=N/NC(=O)c3ccc([N+](=O)[O-])c(C)c3)c2)cc1OC`, the z-score was -0.168.
The compound `COC(=O)C1=C(C)NC(=O)CC1c1ccc(C(=O)OC)cc1` (stereo not given) gave a z-score of 0.0197.
To `COc1ccc(/C=N/OCc2nc3c4c(ncn3n2)Oc2ccc3ccccc3c2C4c2ccccc2)cc1` (stereo not given) belongs 0.386; to `CCn1c(SCC(=O)N/N=C/C=C\c2ccccc2[N+](=O)[O-])nc2ccccc21`, 0.631.
With `CCN(CC)CCCNC(=O)c1cc2c(=O)n(C)c3ccccc3c2n1C`, the z-score was found to be 1.21.
To `Cc1nn(-c2ccccc2)c(Cl)c1/C=C1/C(=N)N2N=C(C(C)C)SC2=NC1=O` belongs 0.217; to `CCOC(=O)Cc1cc(=O)c2c(=O)n(-c3ccccc3)[nH]c2[nH]1`, -0.0705.
As for `Cc1ccc(S(=O)(=O)N(CC(=O)N2CCC(C(N)=O)CC2)c2cccc(C(F)(F)F)c2)cc1`, the z-score is -0.345.
To `CCOc1c2ccc(C(=O)NCc3ccc(C)cc3)cc2nn1CCOC` belongs -0.256; to `COc1cccc(/C=N/NC(=O)c2ccccc2N(Cc2ccccc2)S(=O)(=O)c2ccccc2)c1OC`, -0.653; to `CCOc1ccc(N(CC(=O)Nc2ccccc2C)S(=O)(=O)c2c(C)noc2C)cc1`, -0.0568.
Next, `O=C(O)c1ccc(-n2nnnc2Oc2cccc3cccnc23)cc1`: -0.137; `O=C(COC(=O)Cc1ccsc1)NCC12CC3CC(CC(C3)C1)C2`: -0.197.
To `Cc1ccc(S(=O)(=O)c2nc(NCCCn3ccnc3)sc2Cl)cc1` belongs 0.374; to `CCCNC(=O)C(Cc1ccccc1)NS(=O)(=O)c1cccc2nsnc12` (stereo not given), 0.198; to `C=CCN(CC=C)C(=S)NCCc1ccc(OC)c(OC)c1`, -0.0119.
Take `CCCC(=O)Nc1ccc(C#Cc2ccccc2)cc1`: the z-score was determined as 0.26.
Turning to `CC1CC(C)CN(c2oc(-c3ccccc3Cl)nc2C#N)C1` (stereo not given), the z-score is -0.32.
As to `CC(C)c1ccccc1NC(=O)COC(=O)c1ccc(Cl)c(S(=O)(=O)N2CCCCCC2)c1`, the z-score was -0.177.
Next, `CN(C1CCCCC1)S(=O)(=O)c1ccc(S(=O)(=O)N2CCN(C(=O)c3ccccc3F)CC2)cc1`: 0.0966.
Next, `CCCC(=O)Nc1nc2ccc(OCC)cc2s1`: 0.426; `COc1ccc(Cl)cc1Nc1nc(-c2sc(NC(=O)c3ccccc3)nc2C)cs1`: 0.23.
